# Source: article PMC9182378, “Bicyclic Isoxazoline Derivatives: Synthesis and Evaluation of Biological Activity” (Molecules, 2022)
# Like-named read-outs stand apart in the source and are kept apart here.
# Test system: influenza A/Puerto Rico/8/34 (H1N1) virus
# Experiment: Antiviral activity against influenza virus (inhibition of viral replication)
# Conditions: for IC50: Influenza A virus, H1N1, read-out: IC50 (half-maximal inhibitory concentration causing 50% inhibition of viral replication)
SMILES,"SI (selectivity index CC50/IC50) (CC50/IC50, A/Puerto Rico/8/34 (H1N1))",IC50 [µM],SI (selectivity index CC50/IC50)
"NC1=NOC2(CCCCCCC2)C1 [Compound 3, 1-Oxa-2-azaspiro[4.7]dodec-2-en-3-amine]",83,6.6,
"NC1=NOC2CCCCCCC12 (stereo not drawn) [Compound 4, 3a,4,5,6,7,8,9,9a-Octahydrocycloocta[d]isoxazol-3-amine]",,22,81
"CC(N)C12CC3CC(CC(C3)C1)C2 (stereo not drawn) [Rimantadine, reference compound]",,67 ± 8,6
